This is one part of the list. At the low end of the ranking the order means little.

The target of the experiment is SIX1-Q177R homeodomain (UniProt Q15475). Briefly: universal protein binding microarray. The conditions noted are these: Universal all-10-mer PBM (8x60K, AMADID 030236), 300 nM GST-tagged protein, Alexa Fluor 488 anti-GST; buffer, salt, pH and temperature not stated; high values mean tight binding; most listed sequences are background and not binding sites; double strand, one strand shown.
For CCATGATC, the binding signal was -0.0299 E-score.

Regarding AGTAAAGG, the binding signal worked out at 0.0156 E-score.

Turning to AATCACGA, the binding signal was -0.2 E-score.

Regarding GGGATCCA, the binding signal was determined as 0.211 E-score.

CGGGTCTC: the binding signal was found to be 0.207 E-score.

Consider CCTCGGAA, for which the binding signal came out at 0.067 E-score.

For the sequence CAAGTATG, the binding signal is -0.0537 E-score.

In the case of GACAGAGA, the binding signal is -0.198 E-score.

For the sequence AATGACGG, the binding signal was -0.0674 E-score.

Take GACTTGTA: the binding signal was -0.0205 E-score.

As for AGATCAAT, the binding signal was -0.17 E-score.

In the case of CTCCCCTC, the binding signal is 0.091 E-score.

Turning to ATATTACA, the binding signal was 0.196 E-score.

GCGTCGAC: the binding signal worked out at 0.0629 E-score.

With ATTTCACA, the binding signal stood at 0.0432 E-score.

TAGGAAAA: the binding signal is -0.158 E-score.

With CGCAAACC, the binding signal stood at 0.0622 E-score.

As for AACCGGTC, the binding signal is -0.2 E-score.

Take AGATCAAC: the binding signal was 0.14 E-score.

As to CGATCGGC, the binding signal was -0.211 E-score.

As for AACTACTT, the binding signal was -0.0542 E-score.

For the sequence CAGATACG, the binding signal was -0.0788 E-score.

As to CACTTTTA, the binding signal is -0.0615 E-score.

With AGTCAGTG, the binding signal was determined as 0.207 E-score.

For the sequence AGAGTATA, the binding signal turned out to be 0.0593 E-score.

As to GTCTGCCA, the binding signal was -0.00898 E-score.

For the sequence AAGACGCA, the binding signal is -0.231 E-score.

For AAGTGGTG, the binding signal came out at 0.337 E-score.

For the sequence GCGCTGAA, the binding signal is -0.264 E-score.

GTAGATAC: the binding signal was 0.0991 E-score.

Take AGGTCGAT: the binding signal was -0.017 E-score.

As to AATTAACC, the binding signal came out at 0.00677 E-score.

In the case of AGCAGGAC, the binding signal was -0.107 E-score.

With ATTTGACA, the binding signal came to 0.216 E-score.

With GACCATGA, the binding signal is -0.0554 E-score.

Consider GGCACTAC, for which the binding signal turned out to be 0.0372 E-score.

Take CCCCTCCG: the binding signal was 0.274 E-score.

Take ATGAGTAC: the binding signal was -0.123 E-score.

As for ACCTCCCC, the binding signal is 0.0648 E-score.

In the case of ACAACTGT, the binding signal was 0.0139 E-score.

Regarding AGTCGGAG, the binding signal is -0.0133 E-score.

ACCGCGCT: the binding signal turned out to be 0.0509 E-score.

Consider CGAGCGCG, for which the binding signal was found to be 0.0546 E-score.

For GAAATCAA, the binding signal was -0.3 E-score.

On to GGGGGTAA, for which the binding signal came out at 0.354 E-score.

On to CGTGGATC, for which the binding signal is -0.0273 E-score.

For GAATTAGC, the binding signal was -0.228 E-score.

Consider AAGAGATT, for which the binding signal is -0.229 E-score.

CAAGAAAA: the binding signal was -0.166 E-score.

ATGCAGCG: the binding signal was -0.275 E-score.

Regarding CCTTGCTA, the binding signal is -0.151 E-score.

In the case of GAGAGCAC, the binding signal was found to be 0.0572 E-score.

Turning to CATCAACA, the binding signal was found to be 0.0552 E-score.

As to GTTCTCGA, the binding signal was -0.262 E-score.

As for GTACACGA, the binding signal amounted to 0.419 E-score.

With CAAAATGG, the binding signal was -0.153 E-score.

As to AAGGCGGA, the binding signal was -0.12 E-score.

On to CCGCGACG, for which the binding signal is -0.0348 E-score.

With GTATGGTA, the binding signal was 0.159 E-score.

Turning to TGACCTAA, the binding signal is -0.189 E-score.

With CCGCCGCG, the binding signal is 0.108 E-score.

Turning to ATCTGTCC, the binding signal was -0.0269 E-score.

Regarding GCGCTTCA, the binding signal was -0.123 E-score.

Consider CGCCCTTC, for which the binding signal is -0.0691 E-score.

ATATGGCC: the binding signal was -0.163 E-score.

Turning to ACACTTTG, the binding signal is 0.31 E-score.

Take GCTCGCTA: the binding signal is -0.102 E-score.

As for ACTCAAAA, the binding signal amounted to 0.0954 E-score.

As to TAAAAGCA, the binding signal is -0.133 E-score.

Consider ACGAACAC, for which the binding signal amounted to 0.399 E-score.

On to ACCCCGCC, for which the binding signal came to 0.271 E-score.

CCGGCACA: the binding signal is -0.0107 E-score.

For the sequence CCTTGGTC, the binding signal was -0.112 E-score.

With CACCTGGC, the binding signal was found to be 0.152 E-score.

For the sequence GCTTACAC, the binding signal was found to be 0.437 E-score.

CTCACGTC: the binding signal is -0.231 E-score.

AGTGCTAT: the binding signal was -0.00949 E-score.

Take AAGCTCTG: the binding signal was -0.246 E-score.

Regarding CGGTAGGC, the binding signal amounted to 0.0525 E-score.

Take AAGCGATA: the binding signal was -0.131 E-score.

As to TCAGCGGA, the binding signal was -0.172 E-score.

As for CAACCTAG, the binding signal is -0.0416 E-score.

On to CACCTCCG, for which the binding signal was found to be 0.344 E-score.

With GACACATC, the binding signal worked out at 0.0991 E-score.

Turning to GCGCGGAC, the binding signal is -0.0897 E-score.

Turning to ATTCCATA, the binding signal was -0.234 E-score.

In the case of ACTGAGAT, the binding signal is -0.0796 E-score.

For AAAGACTC, the binding signal is -0.161 E-score.

Regarding AAATGGGA, the binding signal is -0.06 E-score.

For CTGAAAAC, the binding signal is -0.0981 E-score.

Regarding AAATCCAC, the binding signal turned out to be 0.0134 E-score.

Regarding CAGGGTGG, the binding signal stood at 0.161 E-score.

For ACCAGCAG, the binding signal is -0.0691 E-score.

CAAATGGG: the binding signal was 0.0352 E-score.

In the case of CTATCAAC, the binding signal turned out to be 0.0222 E-score.

Regarding GACTTAAA, the binding signal is -0.156 E-score.

Turning to AGCTTGAC, the binding signal was -0.0798 E-score.

GTAATCAA: the binding signal was -0.0178 E-score.

For CGGCGCAC, the binding signal was determined as 0.11 E-score.

As to CATTAAAA, the binding signal was -0.127 E-score.

With ACAGCAAC, the binding signal is -0.243 E-score.

CCCATAAA: the binding signal is -0.101 E-score.

With AGTGCGCG, the binding signal was -0.0551 E-score.

For AATGCCGA, the binding signal is -0.167 E-score.

With TATCCATA, the binding signal came to 0.0901 E-score.

Consider GCGAGGAA, for which the binding signal was -0.13 E-score.

For the sequence CTCATAAG, the binding signal is -0.0267 E-score.

Take AACACCCA: the binding signal came out at 0.456 E-score.

As to CGGTGTAA, the binding signal is 0.481 E-score.

With AAGACCTA, the binding signal was -0.356 E-score.

In the case of CACTGGCC, the binding signal amounted to 0.073 E-score.

On to TTGCTAAA, for which the binding signal is -0.202 E-score.

As for ACCAATCT, the binding signal came to 0.0812 E-score.

In the case of GAAAGTTC, the binding signal is -0.171 E-score.

For the sequence TAGGGCGA, the binding signal is -0.159 E-score.

For the sequence AATATTCC, the binding signal is -0.079 E-score.

With GGCAATGA, the binding signal was -0.064 E-score.

AACTTGTA: the binding signal was -0.127 E-score.

As for CACTAGGG, the binding signal amounted to 0.201 E-score.

On to ATGCCGAA, for which the binding signal is -0.139 E-score.

For GTAACATA, the binding signal came to 0.196 E-score.

Regarding CGGGATCA, the binding signal was determined as 0.269 E-score.

Turning to CAATGGGA, the binding signal is -0.141 E-score.

In the case of AAGGAGGA, the binding signal is -0.0209 E-score.

Consider ACCTGCAT, for which the binding signal is -0.0938 E-score.

Regarding AACATTTC, the binding signal was -0.258 E-score.

Regarding ACTGCAGT, the binding signal was -0.125 E-score.

Regarding AGTGTCTG, the binding signal worked out at 0.302 E-score.

On to ATCCCCGC, for which the binding signal stood at 0.135 E-score.

With GGGCAGAA, the binding signal is -0.0853 E-score.

AAGTGAAC: the binding signal is -0.0745 E-score.

On to CATATCAG, for which the binding signal was -0.0881 E-score.

As for GCTATGAA, the binding signal was -0.0465 E-score.

As for CGGACGGA, the binding signal is -0.201 E-score.

For ACCAGTCG, the binding signal is -0.119 E-score.

With ACTACAGG, the binding signal was determined as 0.0176 E-score.

As to ATAGTTAG, the binding signal is -0.158 E-score.

On to AGGCCTGG, for which the binding signal is -0.0671 E-score.

Turning to CAGACACA, the binding signal was 0.19 E-score.

As to TGTGCCAA, the binding signal is -0.0753 E-score.

For the sequence CATCGGCA, the binding signal is -0.131 E-score.

Take AGAGCGCG: the binding signal is -0.246 E-score.

For the sequence ATCCCCGA, the binding signal worked out at 0.0891 E-score.

In the case of GTTCGCCA, the binding signal is -0.203 E-score.

As to GACCGAAC, the binding signal is -0.13 E-score.

Consider GGTGTGTA, for which the binding signal amounted to 0.411 E-score.

In the case of AATAGTTC, the binding signal was -0.312 E-score.

In the case of CCGCTACA, the binding signal was determined as 0.215 E-score.

As for GAGCGCTA, the binding signal is -0.139 E-score.

CAGCGTTC: the binding signal is -0.157 E-score.

For ATTATTTC, the binding signal is -0.0658 E-score.

Regarding AATTGATG, the binding signal is -0.107 E-score.

TCGATTCA: the binding signal was 0.00232 E-score.

On to ACTTGGCG, for which the binding signal is -0.124 E-score.

In the case of CTCAGCGA, the binding signal is 0.044 E-score.

Regarding CATTGTGC, the binding signal was -0.154 E-score.

As for ACTAAGCC, the binding signal was -0.0781 E-score.

Take CTCGATTC: the binding signal was -0.264 E-score.

For the sequence TACGGAAA, the binding signal is -0.131 E-score.

CCTAGCTC: the binding signal is -0.0229 E-score.

Consider CGGGCTAA, for which the binding signal stood at 0.0273 E-score.

Consider CCCACCGG, for which the binding signal was 0.085 E-score.

For ATACCCGC, the binding signal is 0.266 E-score.

Regarding AGGGGAAT, the binding signal is -0.093 E-score.

With CACCCACA, the binding signal came out at 0.365 E-score.

AACAGCAG: the binding signal is -0.232 E-score.

For AGAGAAAT, the binding signal was -0.35 E-score.

Turning to ATCGTCTC, the binding signal is -0.0682 E-score.

As to AACAACCA, the binding signal was -0.0599 E-score.

With TAAGGCTA, the binding signal was found to be 0.0119 E-score.

Take AAGGCCGT: the binding signal was -0.131 E-score.

Consider CCGATCCG, for which the binding signal was found to be 0.217 E-score.

For the origin of these results see publication PMC10668032.
